Several values for one entry are separate records, joined by “and”; a condition that tells them apart may be missing. Equal entries are not always repeated. The campaign covered roughly 350,000 compounds. About 31,000 (8.9%) were called active. This list was built around the results that the source calls inconclusive (neither active nor inactive); the mix of calls is not that of the screen. The call rests on the fitted dose curve; in most records, active means well fitted inhibition curve with a large enough effect; inconclusive means small, poorly fitted or top-dose-only effect; inactive means no such curve, though single readings can be large or run the other way. Potencies of inconclusive entries are doubtful fits and often do not repeat.
Target: Histone-lysine N-methyltransferase EHMT2 (Homo sapiens) (UniProt Q96KQ7)
Sequence of UniProt Q96KQ7 (Q96KQ7 whole entry, looked up): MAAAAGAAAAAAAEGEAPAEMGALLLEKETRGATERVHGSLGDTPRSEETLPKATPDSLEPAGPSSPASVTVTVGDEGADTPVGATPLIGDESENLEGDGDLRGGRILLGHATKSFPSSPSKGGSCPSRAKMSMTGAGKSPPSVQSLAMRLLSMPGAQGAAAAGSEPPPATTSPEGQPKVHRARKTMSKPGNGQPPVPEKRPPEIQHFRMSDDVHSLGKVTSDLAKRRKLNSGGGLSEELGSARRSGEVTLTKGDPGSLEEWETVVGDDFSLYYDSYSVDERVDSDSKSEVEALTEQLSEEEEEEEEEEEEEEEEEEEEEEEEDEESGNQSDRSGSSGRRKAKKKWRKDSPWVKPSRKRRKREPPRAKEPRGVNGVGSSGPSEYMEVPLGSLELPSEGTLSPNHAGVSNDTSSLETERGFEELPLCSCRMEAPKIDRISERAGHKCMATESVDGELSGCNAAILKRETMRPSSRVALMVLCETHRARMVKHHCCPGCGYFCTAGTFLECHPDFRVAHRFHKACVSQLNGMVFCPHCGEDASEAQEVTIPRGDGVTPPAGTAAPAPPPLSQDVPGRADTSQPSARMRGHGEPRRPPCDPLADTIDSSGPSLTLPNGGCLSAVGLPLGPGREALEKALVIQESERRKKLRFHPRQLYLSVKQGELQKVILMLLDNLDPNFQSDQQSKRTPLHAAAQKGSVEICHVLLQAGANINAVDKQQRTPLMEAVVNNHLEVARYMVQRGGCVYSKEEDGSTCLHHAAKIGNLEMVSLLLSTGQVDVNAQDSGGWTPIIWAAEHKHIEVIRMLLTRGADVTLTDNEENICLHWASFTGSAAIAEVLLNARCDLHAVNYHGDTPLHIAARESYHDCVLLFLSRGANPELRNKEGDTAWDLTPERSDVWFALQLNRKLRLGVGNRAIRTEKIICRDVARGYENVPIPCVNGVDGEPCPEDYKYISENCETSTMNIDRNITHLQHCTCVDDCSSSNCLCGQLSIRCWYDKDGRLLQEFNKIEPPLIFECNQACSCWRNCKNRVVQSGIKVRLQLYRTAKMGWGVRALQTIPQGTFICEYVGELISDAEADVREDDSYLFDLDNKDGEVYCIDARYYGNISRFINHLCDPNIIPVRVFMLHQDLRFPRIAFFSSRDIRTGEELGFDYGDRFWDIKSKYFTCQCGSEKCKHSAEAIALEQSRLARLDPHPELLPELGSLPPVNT
Experiment: qHTS Assay for Inhibitors of Histone Lysine Methyltransferase G9a; further: nearly all actives have a fitted effect of over 75% in size
Conditions: G9a H3K9 monomethylation, AlphaScreen, 2 h; activity, negative = inhibition: at 59 µM (top of the series) unless noted
In short: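 Methyltransferase reactions run at room temperature for 2 h (20 nM enzyme, 500 nM biotin-H3K9 peptide, 20 uM SAM) after a 15 min compound preincubation; product detected by AlphaScreen beads and anti-H3K9me1 antibody.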
On the % scale 0 is the no-effect control and ±100 the full control effect; potency means the concentration at half of the fitted maximal effect; tags describe the fitted curve by direction and shape.

SMILES | activity, negative = inhibition | Potency
Cc1cccc(N2CCN(C(=O)Cn3ncc4c5ccccc5n(C)c4c3=O)CC2C)c1 (configuration not stated) | inactive: 4.42% | 
COc1cccc(C(=O)N2CCN(Cc3cccc(F)c3)CC2)c1 |  | inconclusive: 3.55 µM [inhibitor, partial curve, poor fit]
CC1CCCCN1S(=O)(=O)c1ccc(S(=O)(=O)N2CCN(C)CC2)cc1 (configuration not stated) |  | inconclusive: 89.1 µM [inhibitor, single point]
O=C1c2ccncc2C(=O)N1CO |  | inconclusive: 79.4 µM [inhibitor, partial curve, poor fit]
CC(=O)c1cnc(Oc2cc(Cl)ccc2Cl)nc1C | inactive: 14.6% [at 102 µM] | 
Cc1ccc(S(=O)(=O)c2nc(S(=O)(=O)c3ccc(C)cc3)c(NCCCOC(C)C)s2)cc1 |  | inconclusive: 39.8 µM [inhibitor, partial curve, poor fit]
O=C(CN1CCN(S(=O)(=O)c2ccc(F)cc2)CC1)NC1CC1 | inactive: 6.21% [at 102 µM] | 
S=c1[nH]nc(C2CCCCC2)n1/N=C/c1cccs1 |  | inconclusive: 3.55 µM [inhibitor, single point]
CCn1c(-c2cccc(S(=O)(=O)N3CCCC3)c2)n[nH]c1=S |  | active: 8.91 µM
CCOC(=O)c1ccc(N2C(=O)c3n[nH]c(-c4cccs4)c3C2c2ccc(CC)cc2)cc1 (configuration not stated) |  | inconclusive: 25.1 µM [inhibitor, single point]
COc1cc(N(C)C)c([N+](=O)[O-])cc1C(=O)NC(C)CNc1ccc([N+](=O)[O-])cc1Cl (configuration not stated) |  | inconclusive: 56.2 µM [inhibitor, partial curve, poor fit]
COC(=O)CC1C(C)(C)C(O)C2CC3=C4C=C(OC)OC(c5ccoc5)[C@]4(C)CCC3[C@@]1(C)C2=O (some centres not stated) | inactive: -21% [at 2.33 µM] | 
COCCN(C(=O)c1cc(Cl)ccn1)c1c(N)n(Cc2ccccc2)c(=O)[nH]c1=O |  | inconclusive: 35.5 µM [inhibitor, single point]
CN(C(=O)CSc1nc(N)cc(N)n1)C1CCS(=O)(=O)C1 (configuration not stated) |  | inconclusive: 79.4 µM [inhibitor, single point]
CN(C)c1ccnc2c[cH-]cc12.[Fe].c1ccc(-[c-]2[c-](-c3ccccc3)[c-](-c3ccccc3)[c-](-c3ccccc3)[c-]2-c2ccccc2)cc1 (configuration not stated) |  | inconclusive: 794 nM [inhibitor, partial curve, poor fit] and inconclusive: 3.16 µM [inhibitor, partial curve, poor fit]
CCCc1n[nH]c2c1/C(=N/O)CC(c1ccccc1)C2 (configuration not stated) |  | inconclusive: 89.1 µM [inhibitor, single point]
Cc1ccc(NC(=S)NC(=O)c2ccc(Br)o2)c(C)c1 |  | inconclusive: 89.1 µM [inhibitor, partial curve, poor fit]
O=C(Cn1ncc2c(=O)oc3ccccc3c21)NCc1cccnc1 |  | inconclusive: 50.1 µM [inhibitor, partial curve, poor fit]
Cc1cc(C(=O)COC(=O)c2ccc3c(c2)NC(=O)CS3)c(C)n1CC1CCCO1 (configuration not stated) |  | inconclusive: 28.2 µM [inhibitor, single point]
COCCNC(=O)c1cccc(OC2CCN(Cc3cccc(SC)c3)CC2)c1 | inactive: 0.769% [at 102 µM] | 
CCOC(=O)c1c(NC(=O)/C=C/c2ccc(C)cc2)sc(C(C)=O)c1C |  | inconclusive: 39.8 µM [inhibitor, single point]

SMILES | activity, negative = inhibition | Potency
CCS(=O)(=O)N1CCC(C(=O)Nc2ccccc2OC)CC1 | inactive: 26.3% [at 102 µM] | 
CS(=O)(=O)N1CCC[C@@]2(CCN(C(=O)Nc3ccccc3)C2)C1 | inactive: 6.12% [at 12.7 µM] | 
COc1ccccc1OCc1nnc(SCC(=O)NCc2ccco2)n1Cc1ccco1 |  | active: 79.4 µM
O=C(CSc1ncn(-c2ccccc2)n1)N1CCc2ccccc21 |  | inconclusive: 3.16 µM [inhibitor, partial curve, poor fit]
COc1ccc(CC(=O)Nn2c(-c3ccccc3)nc3ccccc3c2=O)cc1 |  | inconclusive: 79.4 µM [inhibitor, partial curve, poor fit]
CN(C(=S)NC(=O)C1CC1)c1ccc(O)cc1 |  | inconclusive: 1.58 µM [inhibitor, partial curve, poor fit]
C[n+]1ccc(C(=O)N/N=C/c2ccco2)cc1 |  | active: 17.8 µM
COc1cccc(C2C=C(c3ccccc3)Nc3c(C(=O)Nc4ccccc4)cnn32)c1OC (configuration not stated) |  | inconclusive: 7.94 µM [inhibitor, full curve]
COc1cc(C(CC(=O)Nc2cccc(C(C)=O)c2)N2Cc3ccccc3C2=O)cc(OC)c1OC (configuration not stated) | inactive: -10.6% | 
CC(=O)Nc1ccc(S(=O)(=O)N(C)CC(=O)Nc2ccc(F)c(F)c2F)cc1 | inactive: -1.25% [at 2.33 µM] | 
CCOc1ccccc1C(=O)OCC(=O)Nc1ccc(N2CCCCC2)cc1 |  | inconclusive: 8.91 µM [inhibitor, full curve, poor fit]
Cc1ccc(C2=NN=C(NC(=O)CSc3nncn3C)SC2)cc1 |  | active: 22.4 µM
CCOC(=O)C(=O)c1csc(NC(=O)CCSc2ccc(C)cc2)n1 |  | active: 70.8 µM
CC(=O)Nc1ccc(CN2CCN(c3cccc(C(F)(F)F)c3)CC2)cc1 |  | inconclusive: 28.2 µM [inhibitor, partial curve, poor fit]
CN(C)CCCNCCCNC(=O)c1ccco1 |  | inconclusive: 1.26 µM [inhibitor, partial curve, poor fit]
C=CCNC(=S)Nc1ccccc1-c1nnc2n1CCCCC2 |  | inconclusive: 89.1 µM [inhibitor, single point]
CC(=O)/C(N=Nc1c(C)n(C)n(-c2ccccc2)c1=O)=C(\C)O | inactive: -7.87% [at 102 µM] | 
CCCCCC(=O)Nc1cccc(C2=NOC3(C2)C[C@@H](C(N)=O)N(C(=O)c2cc([N+](=O)[O-])cc([N+](=O)[O-])c2C)C3)c1 (some centres not stated) | inactive: -29.6% | 
CCn1c2ccccc2c2cc(NC(=O)c3ccc(=O)oc3)ccc21 |  | active: 44.7 µM
Cc1ccc(NC(=O)CCCn2c(=O)c3cccn3c3cccnc32)cc1C | inactive: 1.71% | 
COC(=O)c1cc(NCc2ccc3c(c2)OCO3)ccc1N1CCOCC1 |  | inconclusive: 1.58 µM [inhibitor, full curve, poor fit]

— PubChem BioAssay AID504332 (National Center for Advancing Translational Sciences (NCATS), 2011)
